For this experiment, the system named is SW1271 complex spheroids with HUVEC/MSC, growth, % test/control. As to the kind of experiment: Anticancer human tumor SW1271 cell line growth inhibition [AhR].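 For all read-outs here: spheroids exposed to agents for 7 days before readout.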 Particulars: for viability, T/C: stronger effect = lower value; for IC50: compound alone. An excerpt: Multicellular complex tumor spheroid response to aryl hydrocarbon receptor antagonists in combination with a variety of drugs and investigational agents in selected tumor cell lines
The current study was undertaken to assess response to aryl hydrocarbon receptor antagonists in combination with standard-of-care drugs and investigational agents in solid tumor complex spheroid models. Complex spheroids include a stromal component modeled by human endothelial cells (HUVEC) and fibroblasts modeled by human mesenchymal stem cells (MSCs). The concentration ranges selected for each drug and investigational agent were based upon clinically achievable concentrations if the clinical Cmax of the agent was known.
Compounds. The drugs and investigational agents: BAY 2416964 (NSC825713), GNF351 (NSC835774), CH-223191 (NSC835775), CPI-455 (NSC825282), aza-TdCyd (NSC777586), decitabine (NSC127716), belinostat (NSC758774), entinostat (NSC756642), pevonedistat (NSC761192), tazemetostat (NSC777109), talazoparib (NSC765396), olaparib (NSC753686), selinexor (NSC780203), nedisertib (M3814, NSC802822), bortezomib (NSC756655), venetoclax (NSC766270), doxorubicin (NSC123127), elimusertib (BAY189344, NSC800525), ceralasertib (AZD6738, NSC777638), TAK-243 (NSC785004), alisertib (NSC759677), etoposide (NSC141540), topotecan (NSC609699), eribulin (NSC707389), gemcitabine (NSC613327), carboplatin (NSC241240), cisplatin (NSC119875), and SN-38 (NSC673596) were obtained from the National Cancer Institute (NCI) Developmental Therapeutics Program Chemical Repository (32). The FDA-approved anticancer drug set is available from the Developmental Therapeutics Program at https://dtp.cancer.gov/organization/dscb/obtaining/available plates.htm. […] The stock solutions were prepared in dimethyl sulfoxide (DMSO, Sigma-Aldrich, St. Louis, MO, cat. D2650), except for the platinum compounds which were prepared in saline (Quality Biological, Gaithersburg, MD, cat. 114-055-101), at 800-fold the tested concentration and stored at -70 degrees C prior to their use. All drugs and investigational agents were tested over a range starting from a high concentration at or near the clinical Cmax and decreasing in half-log increments. If the clinical Cmax for an agent had not been determined, the highest concentration tested was 10 microM (Table 1).
Cell Culture. All cells were maintained in an incubator at 37 degrees C and 5% CO2 with 95% humidity. The PDC lines were cultured according to standard operating procedures established by the NCI PDMR (https://pdmr.cancer.gov). Briefly, all PDCs were thawed and cultured in Matrigel-coated flasks prepared with a working solution of 1X Ham's F-12 nutrient mix, without supplementation (Invitrogen, Waltham, MA, cat. 11765054), 100 U/mL penicillin-streptomycin (Invitrogen, cat. 15140122), and 2.5% Matrigel (Corning Inc., Corning, NY, cat. 354248) for the first three passages. All PDCs were cultured in complete DMEM/F-12 media containing advanced DMEM/F-12 (Invitrogen, cat. 12634028), 4.9% defined fetal bovine serum, heat inactivated (HyClone Laboratories Inc., Logan, UT, cat. SH30070.03HI), 389 ng/mL hydrocortisone (Sigma-Aldrich, cat. H4001), 9.7 ng/mL human EGF recombinant protein (Invitrogen, cat. PHG0313), 23.4 microg/mL adenine (Sigma-Aldrich, cat. A2786), 97.3 U/mL penicillin-streptomycin (Invitrogen, cat. 15140122), 1.9 mM L-glutamine (Invitrogen, cat. 25030081), and 9.7 microM Y-27632 dihydrochloride (Tocris Bioscience, Bristol, United Kingdom, cat. 1254). The PDCs were cultured in complete DMEM/F12 media without 10 microM Y-27632 dihydrochloride for at least two passages prior to the screen. The established cell lines NCI-H1341 and […] were cultured in DMEM/F-12, HEPES (Invitrogen, cat. 11330032), 5% defined fetal bovine serum (HyClone Laboratories Inc., cat. SH30070.03), ITS premix universal culture supplement [insulin (5 microg/mL), transferrin (5 microg/mL), and selenious acid (5 ng/mL)] […]

The source holds more than one record for some entries. Only these are listed. There may be further records. Values given together are repeats across runs, samples, wells, individuals or studies. Counts like (3×) count equal records among those shown. Where only a bound is given, the exact number is not on record here.

A word on the IC50: it is the concentration that gives 50% inhibition.

Regarding `Cc1cncc(-c2nc(NCCc3c[nH]c4ccccc34)c3ncn(C(C)C)c3n2)c1`, the viability, T/C by setting is: (compound alone 0.1 µM) 110, 101 (2×), 107 (2×), 78.1, 89.4, 98.2, 76.6, 109, 89.8, 96.3, 99.5, 104, 97.3, 83.8, 108, 85.7, 88.1, 89%; (compound alone 0.316 µM) 112, 102, 83.7, 97, 86.9, 100, 79.9, 93.7, 92.4, 78.2, 108, 111, 98.5, 105, 96.3, 106, 99.1, 86.2, 88.2, 95.5%; (compound alone 1 µM) 112, 104, 77.8, 95.4 (2×), 103, 111, 98.6, 84, 92.9, 91.2, 98.3, 96.2, 97.3, 83.5, 89.2, 102, 94.6, 89.9, 97.8%; (compound alone 3.16 µM) 111 (2×), 130, 83.1, 104, 105, 85.9, 101 (2×), 95.8, 94.7, 102, 103, 92.4, 107, 99, 86.5, 95.2, 96.2, 84.6%. Moreover, under “run of 08/16/2022”, the IC50 was > 10 µM, 8.5 µM, 7.53 µM, 9.01 µM, 8.68 µM, 8.36 µM, 8.83 µM, 9.08 µM, 8.59 µM, 9.2 µM, 8.66 µM, 8.6 µM, 9.94 µM, 6.51 µM, 9.97 µM.

With `COc1cccc2c1C(=O)c1c(O)c3c(c(O)c1C2=O)CC(O)(C(=O)CO)CC3OC1CC(N)C(O)C(C)O1` (configuration not stated), the IC50 is 170 nM, 342 nM, < 31.6 nM.

`Nc1ccn(C2OC(CO)C(O)C2(F)F)c(=O)n1` (configuration not stated): the IC50 is given as 10 µM, > 10 µM, < 31.6 nM.

With `CC(CO)NC(=O)c1cc(-c2ccc(Cl)cc2)nn(-c2cnn(C)c2)c1=O` (configuration not stated), the viability, T/C runs as follows: (compound alone 0.316 µM) 80.2, 82, 89.5, 81.1, 105, 78.8, 76.6, 106, 92.8, 87.2, 117, 91.7, 113, 89, 79.6, 92.1, 71.8, 92.3, 95, 93.2, 96%; (compound alone 1 µM) 105, 77.6, 80.1, 78.3, 92.7, 83.8, 88.5, 73.5, 81.5, 79.7, 97.4, 94, 94.6, 85, 78.8, 107, 82.3, 97.7, 93.6, 67, 85.3%; (compound alone 3.16 µM) 77.2, 78.4, 81.9 (2×), 80.6, 91.4, 71.3, 85.9, 92.8, 84.2, 70.8, 61.8, 89.3, 84.4, 88.9, 92.3, 85.6, 79.1, 75.2%; (compound alone 10 µM) 66.6, 77, 69.2, 70.2, 76.3, 69.3, 74, 59.8, 71.7, 75.9, 67.5, 78.9, 69, 55, 76.6, 81.9, 65.2, 66.3, 68.4%.

`COc1cc(C2c3cc4c(cc3C(OC3OC5COC(C)OC5C(O)C3O)C3COC(=O)C23)OCO4)cc(OC)c1O` (configuration not stated): the 50% inhibitory concentration (IC50) was 10 µM, > 10 µM, 215 nM.

In the case of `Cc1ccccc1N=Nc1ccc(NC(=O)c2ccnn2C)c(C)c1`, the viability, T/C by setting is: (compound alone 0.1 µM) 89.5 (2×), 73.8, 78.6, 60.8, 86.3 (2×), 82.5, 82.9, 107, 93.1, 108 (2×), 102, 109, 106, 115, 99.5, 111, 99.6%; (compound alone 0.316 µM) 91.5, 69.5, 73.2, 65.6, 121, 101, 79.8, 88.4, 105, 93.4, 96.1, 82.6, 96.2, 108, 90.1, 107, 110, 90.7, 100, 89.9%; (compound alone 1 µM) 101, 81.8, 77.3, 77.7, 103 (3×), 77.5, 80, 99.3, 110, 108, 94.4, 88, 87, 104, 86.8, 114, 90.7, 90.9%; (compound alone 3.16 µM) 90.7, 66.8, 78.3, 84.7, 95.7, 73.9, 85.4, 91.5, 93.2, 96.2, 88.3, 87.7, 114, 101 (2×), 118, 105, 102, 95.6, 92.1%; (compound alone 10 µM) 100, 65.8, 69.3, 64.2, 94.1, 70.5, 71.3, 88.8, 89.3, 101, 113, 82.1, 84.3, 99.1, 96.9, 87.8, 94.3, 97.3, 90.5, 85.2%.

The record behind these values is PubChem BioAssay AID1919017 (Molecular Pharmacology Branch, DTP, NCI, 2023).
